Data published in PubChem BioAssay (NCI).
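Five compound concentrations were applied to cells in 96-well plates for 48 hours; endpoints were derived by simple linear interpolation of the resulting dose-response curve. GI50 = concentration required for 50% inhibition of growth. TGI denotes the concentration required for complete inhibition of growth.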

Test system: NCI-H322M lung
Assay: DTP human tumour cell line panel, 48 h

Structure (SMILES)	GI50	TGI
COc1ccc2nc(Cl)c(-c3cc(-c4ccccc4)nc(N)n3)cc2c1	14.7 µM	59.4 µM
N#CC1=C(c2ccco2)Nc2c(c(-c3ccccc3)nn2-c2ccccc2)C12C(=O)Nc1ccc(Cl)cc12 (stereo unspecified)	35.4 µM	> 100 µM
O=C(Nc1ccc(C(F)(F)F)cc1)Nc1ccc2oc(=O)ccc2c1	38.1 µM	> 100 µM
